Measurements as given in PubChem BioAssay AID1346428 (National Center for Advancing Translational Sciences (NCATS), 2018).
The whole screen tested about 48,000 compounds, of which about 1,200 (2.5%) were called active. Not shown: some 2% with an inconclusive outcome.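 How the source made its calls: active means activation of at least 60% and not above a set upper limit (about 1 call in 100 departs from these limits); inconclusive means activation of 40% to 60%, or above that upper limit; inactive means activation under 40%.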 Some of the results follow.

Target: Probable G-protein coupled receptor 32 (Homo sapiens) (UniProt O75388)
Assay: qHTS for Agonists of Human Resolvin D1 Receptor DRV1; further: 0% is about no effect
Conditions: CHO-K1 GPR32 beta-arrestin PathHunter luminescence, 90 min; at 76.9 µM; hits give high values; zero percent set by DMSO-only wells
Outline: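 Luminescent readout of beta-Gal complementation quantifies ligand-induced beta-arrestin association with GPR32 in CHO-K1 cells; 90 min compound incubation at 37 °C, detection 1 h at room temperature.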

Sequence of UniProt O75388 (O75388 whole entry, looked up): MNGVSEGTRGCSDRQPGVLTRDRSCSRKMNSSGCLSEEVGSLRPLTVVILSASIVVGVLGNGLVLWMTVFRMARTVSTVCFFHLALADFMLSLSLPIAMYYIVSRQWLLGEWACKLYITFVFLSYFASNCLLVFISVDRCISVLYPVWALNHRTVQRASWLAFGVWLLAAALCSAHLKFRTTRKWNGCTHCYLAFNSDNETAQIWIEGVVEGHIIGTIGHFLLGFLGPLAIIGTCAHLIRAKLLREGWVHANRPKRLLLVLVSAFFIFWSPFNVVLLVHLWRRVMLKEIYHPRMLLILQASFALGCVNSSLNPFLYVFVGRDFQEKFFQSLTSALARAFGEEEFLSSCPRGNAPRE

activation, inactive:
Cc1ccc2c(c1)c1c(c(=O)n(-c3ccccc3C)c(=O)n1CC(=O)N1CCCC1)n2C -0.0271%, Cc1ccccc1Nc1sc(C(=O)c2ccccc2)c(N)c1C(=O)NCc1ccc(Cl)cc1 -67.8%, COc1ccc(C)cc1NC(=O)C1CCN(S(=O)(=O)c2c(C)noc2/C=C/c2ccco2)CC1 -33%, C#C[C@]1(O)CC[C@H]2[C@@H]3CCC4=CC(=O)CC[C@@H]4[C@H]3CC[C@@]21CC -0.415%, O=C(Nc1ccc(F)cc1F)C(Cc1ccccc1)N1Cc2ccccc2C1=O (centres undefined) -14.9%, COc1cccc(-n2c(-c3ccc(Cl)cc3)cc3c2CC(C)(C)CC3=O)c1 -15.5%, COc1cc2c(=O)n(Cc3ccccc3Cl)c(=O)n(CC(=O)Nc3ccccc3)c2cc1OC 8.88%, O=C(CCC(=O)N1CC2CCCN2c2ccccc21)NCc1cccc(Cl)c1 (centres undefined) -25.8%, Cc1ccc(-c2nnc(SCC(=O)NC3CCCC3)nc2-c2ccc(C)cc2)cc1 -26.4%, Cc1ccc(C(=O)Nc2nc3ccc(S(=O)(=O)N4CCCC4)cc3s2)cc1 24.2%, CCOc1ccc(NC(=O)CCC(=O)N2CC(C)Oc3ccc(C)cc32)cc1 (centres undefined) -6.51%, COc1ccc(CN2C(=O)c3oc4ccc(F)cc4c(=O)c3C2c2ccc(O)cc2)cc1 (centres undefined) -0.289%, N#CC(=C(\N)Sc1ccccc1N)/C(C#N)=C(/N)Sc1ccccc1N 9.34%, CCCCn1cc2c(c1-c1ccccc1Br)c(=O)n(C)c(=O)n2C -32.9%, Cc1nc(N2CCOCC2)c2c(C(=O)NCCc3ccccc3)c(C)oc2n1 -13.7%, O=C(/C=C/c1ccccc1)NCCO 18.4%, Cc1ccc(C(=O)n2nc(-c3ccco3)nc2NCc2cccs2)cc1 -1.35%, N#C/C(=C\c1ccc(O)c(O)c1)C(=O)NCc1ccccc1 -21.5%, Cc1ccc(NC(=O)C2CCCN(c3ncnc4onc(-c5ccc(F)cc5)c34)C2)c(Cl)c1 (centres undefined) 8%, CCCCOc1cccc(C(=O)Nc2cccc(-c3nc4ncccc4o3)c2C)c1 4.74%, CCOC(=O)C1=C(C)NC(=O)NC1c1cn(-c2ccccc2)nc1-c1ccc(OCC)cc1 (centres undefined) 29.1%, CCC(C)NC(=O)Cn1ccc2cc(S(=O)(=O)N3CCCCC3)ccc21 (centres undefined) -14.8%, CSc1ncc(C(=O)N2CCN(c3cc(C)ccc3C)CC2)c(C)n1 37.3%, Cc1cccc(N2CCN(C(=O)CN3C(=O)COc4ccc(S(=O)(=O)N5CCCCCC5)cc43)CC2)c1C -13.2%
